In PubChem BioAssay (NCI):
Values joined by “and” are separate entries in the source; they are usually repeats but may differ in a detail not shown here. Identical values can stand only once.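 In this assay, cells in 96-well plates receive the compound at five concentrations for 48 hours. Endpoints are linearly interpolated between the surrounding concentrations. GI50 marks 50% less growth. The concentration for full growth arrest is given as TGI.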 Square brackets hold non-standard residues; d marks the D form. Peptide text beside a SMILES is read from it. 2Nal = N[CH](Cc1ccc2ccccc2c1)C(=O)O

Test system: NCI-H322M lung
Assay: NCI anticancer screen, dose series, 48 h

SMILES | TGI | GI50 [µM]
Cc1c(C2Cc3ccccc3N2)c2ccccc2n1C (stereo unspecified) | > 100 µM | 
NC(N)=NS(=O)(=O)c1ccc(NC(=O)c2ccc3[nH]c4ccccc4c(=O)c3c2)cc1 | > 100 µM | 
COc1ccc(NC(=O)CCc2cc(C(C)(C)C)n[nH]2)cc1 | > 100 µM | 
O=C(Nc1nc(C23CC4CC(CC(C4)C2)C3)cs1)c1cc2c(ccc3ccccc32)oc1=O | > 100 µM | 
COC(=O)C1=C(O)[C@H](C(=O)OC)[C@]2(O)[C@@H](C(=O)OC)[C@H]1C[C@@H](c1ccc(OC(=O)/C=C/c3ccco3)cc1)[C@@H]2C(=O)OC | > 100 µM | 52.3
CC(C)C(NC(=O)C(CCCCN)NC(=O)C(Cc1c[nH]c2ccccc12)NC(=O)C(Cc1ccc(O)cc1)NC(=O)C(CS)NC(=O)C(N)Cc1ccc2ccccc2c1)C(=O)NC(CS)C(=O)NC(C(N)=O)C(C)O (stereo unspecified) (H-[2Nal]CYWKVCT-NH2; configuration not given here) | > 100 µM | > 100
COCCOCCOCCOc1ccc(C(C#N)N(CCc2ccccc2)C(=O)c2cc(C(=O)N(CCc3ccccc3)C(C#N)c3ccc(OCCOCCOCCOC)cc3)cc(C(=O)N(CCc3ccccc3)C(C#N)c3ccc(OCCOCCOCCOC)cc3)c2)cc1 (stereo unspecified) | > 100 µM | 
CSc1nc(NC2OC(COC(C)=O)C(OC(C)=O)C(OC(C)=O)C2OC(C)=O)c(N=C(C)C(C)=O)c(=O)n1C (stereo unspecified) | > 100 µM | 
COc1ccc(/C=C2\CC(C)CC3C2=NN(c2ccccc2)C3c2ccc(OC)c(OC)c2)cc1OC (stereo unspecified) | > 100 µM | 4.48
O=C(Cn1c(C(=O)c2ccccc2)nc2ccccc21)c1ccc(F)cc1 | > 100 µM | 51.6
COc1ccc(/C=C\c2cc(OC)c(OC)c(OC)c2)c(O)c1O | 42.7 µM and 32.7 µM | 0.231
Cc1ccc(-c2cc(-c3c(C)nn(C)c(=O)c3N)[nH]n2)cc1 | > 100 µM | 
C=C1NC(=O)C(CC(C(=O)C(=O)Nc2c(C)cccc2C(C)(C)C)C(=O)c2ccc3ccccc3c2)C(=O)N1 (stereo unspecified) | > 100 µM | 
CC(C)(C)NC(=O)C12C3C4C1C1C2C3C41C(=O)NC(C)(C)C (stereo unspecified) | > 100 µM | 
CCOC(=O)c1c2cccccc2n2c(=O)cc(C)nc12 | > 100 µM | 
CN(C)Cc1cc(N=Nc2ccc(Cl)cc2)ccc1O | 44 µM | 
Cc1nc(Nc2ccccc2)sc1C(=O)CC(=O)C(=O)NC12CC3CC(CC(C3)C1)C2 | > 100 µM | 
Cc1cn2c(/C=C3/C(=O)Nc4ccc(F)cc43)c(C)nc2s1 | > 50 µM | 34.8
CC1CC(C)C2=NOS3=C2C1=NO3 (stereo unspecified) | > 100 µM | 
COc1cc(-c2ccc(NC(=O)NC3CC3)c(OC)c2)ccc1NC(=O)NC1CC1 | > 100 µM | 15.5
Cc1ccc(/C=C(\C#N)c2ccccc2)cc1 | > 100 µM | 
N#Cc1c(-c2ccccc2)c(C#N)c(=O)n(C2OC(CO)C(O)C(O)C2O)c1S (stereo unspecified) | > 100 µM | 

SMILES | TGI | GI50 [µM]
COC1(CC[C@H](C)COC2OC(CO)C(O)C(O)C2O)O[C@H]2C[C@H]3[C@@H]4CC=C5C[C@@H](OC6OC(CO)C(O)C(OC7OC(CO)C(O)C(O)C7O)C6OC6OC(C)C(O)C(O)C6O)CC[C@]5(C)[C@H]4CC[C@]3(C)[C@H]2[C@@H]1C (stereo partly specified) | 9.95 µM | 
CN(C)CCNC(=O)c1cccc2ncc(-c3ccccc3)nc12 | 35.1 µM | 
CCN(CC)CCNc1ccc(C)c2sc3ccccc3c(=O)c12 | 9.71 µM | 
CCN(CC)C(=S)SS(=O)(=O)c1ccccc1[N+](=O)[O-] | > 100 µM | 
COc1ccc2c(-c3ccc(O)cc3)c(Oc3ccc(Cl)cc3)c(=O)oc2c1 | 23.9 µM | 
COc1cc(C23OCC(Cc4cc5c(cc42)OCO5)C3CO)cc(OC)c1OC (stereo unspecified) | > 100 µM | 
COc1ccc(CNC(=O)[C@H](Cc2ccc(O)cn2)NC(C)=O)cc1 | > 100 µM | 
COC(=O)C1=C(C(=O)OC)C2OC1c1cc3ccccc3cc12 | 37.3 µM | 
N#CCCN(CCC#N)c1ccc(C(N=Nc2ccc(Cl)cc2)=Nc2ccc(F)cc2)cc1 | > 100 µM | 
OC(c1ccccc1)C(F)(F)c1nc2ccccc2o1 (stereo unspecified) | > 100 µM | 
O=C(c1ccccc1)c1c(CC(O)c2ccccc2)n(C(=O)c2ccccc2)c2ccccc12 (stereo unspecified) | > 100 µM | 
O=C(Nc1cccnc1)c1ccc2ccc3ccc(C(=O)Nc4cccnc4)nc3c2n1 | > 100 µM | 0.114
CO[C@@H]1[C@H]2[C@@H](C)c3ccoc3C[C@@H]2[C@@]2(C)CC[C@H](OC(=O)c3ccccc3)[C@](C)(C(=O)O)[C@]2(O)[C@@H]1OC(=O)c1ccccc1 | > 50 µM | 11.3
CC1=NN(C(=O)c2ccc(Cl)cc2)C(=O)/C1=C/c1ccco1 | > 100 µM | 
CSc1ccc(C2=NN(C(C)=O)C(c3ccc(F)cc3)C2)cc1 (stereo unspecified) | 36 µM | 15.9
NC(N)=NC(N)=Nc1ccccc1 (tested in a mixture with another compound) | > 100 µM | 
O=C(/C=C/c1ccc(O)c(O)c1)NCCc1ccc(-c2ccccc2)cc1 | 94.2 µM | 
COC(=O)[C@@H]1Cc2cc(O)c(O)cc2C2(CCN(C)CC2)O1 | > 10 µM | 
O=C(CCOS(=O)(=O)CF)N1CCN(C(=O)CCOS(=O)(=O)CF)CC1 | > 100 µM | 
CC(C)CCC(=O)[C@@H](C)[C@H]1[C@@H](OC2OCC(O)C(O)C2NS(C)(=O)=O)C[C@H]2[C@@H]3CC=C4C[C@@H](O)CC[C@]4(C)[C@H]3CC[C@]12C (stereo partly specified) | 14.8 µM | 4.22
CC1(C)CN=C(Nc2ccc(F)c(F)c2)S1 | > 100 µM | 
CC(NC(NC(C)C12CC3CC(CC(C3)C1)C2)=C(C(Cl)=C(Cl)Cl)[N+](=O)[O-])C12CC3CC(CC(C3)C1)C2 (stereo unspecified) | > 100 µM | 

SMILES | TGI | GI50 [µM]
NNC(=S)Nc1cccc(Cl)c1 | > 100 µM | 
CC[C@@H](/C=C\CCC1(C[C@@H](N)CCC=C(C)C)OCCO1)O[Si](C(C)C)(C(C)C)C(C)C | 31.4 µM | 
Nc1ccccc1N=Nc1c(S(=O)(=O)O)cc2cc(S(=O)(=O)O)cc(O)c2c1O | > 100 µM | 
COc1cc2ncn(-c3cc(OCc4ccccc4C(F)(F)F)c(C(C)=O)s3)c2cc1OC | > 25 µM | > 25
O=C1/C(=C/c2cccs2)NC(=S)N1CN1CCCC(CO)C1 (stereo unspecified) | > 100 µM | 
CCOC(=O)NC(=O)c1cn(CCN2CCNCC2)c(=O)[nH]c1=O | > 100 µM | 
O=C(Nc1ccc2c(c1)OCO2)C(=O)c1c[nH]c2cc(F)ccc12 | 90.2 µM | 11
O=C(Nn1cnn2c(=O)c3ccccc3nc2c1=O)c1ccccc1 | > 100 µM | 
Cc1cc(NNC(=O)c2ccccc2O)nc(Nc2nc3ccccc3o2)n1 | 15.9 µM | 0.849
COC(=O)c1cc(C)n(CN(Cc2ccccc2)Cn2nc(C(=O)OC)cc2C)n1 | > 100 µM | 
COc1ccccc1NC(=S)Nc1cc(C)ccn1 | > 100 µM | 
O=C(NNC(=S)NCc1ccccc1)C12CC3CC(CC(C3)C1)C2 | > 100 µM | 
CN(O)C(=S)c1ccccc1 | > 100 µM | 
O=S(=O)(Nc1ccc2ccccc2c1)c1ccc(-c2cnc(C3CC3)o2)cc1 | > 100 µM | 5.81
O=[N+]([O-])c1nccn1CCCNCCCn1ccnc1[N+](=O)[O-] | > 100 µM | 
Nc1nc(N)c(N=Nc2ccc(C(=O)O)c(O)c2)c(N)n1 | > 100 µM | 
CC(=O)C1CCC2C3CC=C4CC(SC(=N)N)CCC4(C)C3CCC12C (stereo unspecified) | 7.86 µM | 2.06
C[C@@H]1CC[C@@H]2[C@@H](C)C[C@H]3[C@@H]4C(C)(C)OC(=O)[C@]4(C)C(=O)[C@@]23C1=O | > 100 µM | 
CC(=O)Oc1c2oc3cc(O)c(O)cc3c2c(OC(C)=O)c2oc3cc(O)c(O)cc3c12 | > 100 µM | 
O=C(O)CC1CC=C[C@H]2c3cc4c(cc3C(=O)NC12)OCO4 (stereo partly specified) | > 75 µM | 
CCCCCCCCCCCCCC(=O)OCC1OC(n2cc(F)c(=O)[nH]c2=O)C(N)C(OC(=O)CCCCCCCCCCCCC)C1O (stereo unspecified) | > 100 µM | 
